For the first assay, the system named is NCI-H322M.
Experiment: not given
The following applies: single dose 10 μM; non-small lung carcinoma.
With “3-(5-(Benzofuran-2-yl)-1-phenyl-1H-pyrazol-3-yl)-1-(4-methoxyphenyl)prop-2-en-1-one [2b]”, the GI% worked out at 2.02%.
The same measure, in the same setting: the figure for `c1ccc(C2=NNC(c3cn(-c4ccccc4)nc3-c3cc4ccccc4o3)C2)cc1` (stereo not shown) [3a, 3-(Benzofuran-2-yl)-4-(3-phenyl-4,5-dihydro-1H-pyrazol-5-yl)-1-phenyl-1H-pyrazole] is 1.85%; for `COc1ccc(C2=NNC(c3cn(-c4ccccc4)nc3-c3cc4ccccc4o3)C2)cc1` (stereo not shown) [3b, 3-(Benzofuran-2-yl)-4-(3-(4-methoxyphenyl)-4,5-dihydro-1H-pyrazol-5-yl)-1-phenyl-1H-pyrazole] it is 2.93%.
Take `COc1ccc(C2=NNC(c3cn(-c4ccccc4)nc3-c3cc4ccccc4o3)C2)cc1OC` (stereo not shown) [3c, 3-(Benzofuran-2-yl)-4-(3-(3,4-dimethoxyphenyl)-4,5-dihydro-1H-pyrazol-5-yl)-1-phenyl-1H-pyrazole]: the GI% stood at 41.54%.
Same read-out and setting: the value for `c1ccc(-n2cc(C3CC(c4nc5ccccc5[nH]4)=NN3)c(-c3cc4ccccc4o3)n2)cc1` (stereo not shown) [3d, 3-(Benzofuran-2-yl)-4-(3-(1H-benzo[d]imidazol-2-yl)-4,5-dihydro-1H-pyrazol-5-yl)-1-phenyl-1H-pyrazole] was 85.31%; that for `CC(=O)N1N=C(c2ccccc2)CC1c1cn(-c2ccccc2)nc1-c1cc2ccccc2o1` (stereo not shown) [4a, 1-(5-(3-(Benzofuran-2-yl)-1-phenyl-1H-pyrazol-4-yl)-3-phenyl-4,5-dihydropyrazol-1-yl)ethanone] was 2.33%; that for `COc1ccc(C2=NN(C(C)=O)C(c3cn(-c4ccccc4)nc3-c3cc4ccccc4o3)C2)cc1` (stereo not shown) [4b, 1-(5-(3-(Benzofuran-2-yl)-1-phenyl-1H-pyrazol-4-yl)-3-(4-methoxyphenyl)-4,5-dihydropyrazol-1-yl)ethanone] was 3.11%.
The same measure, in the same setting: the figure for `COc1ccc(C2=NN(C(C)=O)C(c3cn(-c4ccccc4)nc3-c3cc4ccccc4o3)C2)cc1OC` (stereo not shown) [4c, 1-(5-(3-(Benzofuran-2-yl)-1-phenyl-1H-pyrazol-4-yl)-3-(3,4-dimethoxyphenyl)-4,5-dihydropyrazol-1-yl)ethanone] is 2.32%; for `CC(=O)N1N=C(c2nc3ccccc3[nH]2)CC1c1cn(-c2ccccc2)nc1-c1cc2ccccc2o1` (stereo not shown) [4d, 1-(5-(3-(Benzofuran-2-yl)-1-phenyl-1H-pyrazol-4-yl)-3-(1H-benzo[d]imidazol-2-yl)-4,5-dihydropyrazol-1-yl)ethanone] it is 2.19%.

A further assay has as its system NCI-H322M. In words: cells. The following applies: Homo sapiens.
In general, GI50 refers to the concentration at which growth is held to half of that of the control. As to `c1ccc(-n2cc(C3CC(c4nc5ccccc5[nH]4)=NN3)c(-c3cc4ccccc4o3)n2)cc1` (stereo not shown) [3d, 3-(Benzofuran-2-yl)-4-(3-(1H-benzo[d]imidazol-2-yl)-4,5-dihydro-1H-pyrazol-5-yl)-1-phenyl-1H-pyrazole], the GI50 was 3.77 µM.

These data come from article PMC12486440, “Design, synthesis, and in silico studies of new benzofuran–pyrazole hybrids as multi-kinase inhibitors with potential antiproliferative activity” (RSC Advances, 2025).
